{"source": "paper PMC12136788", "binders": {"B1": {"name": "chr7:73736928:73737391:-|CDS|ENSG00000106077|control|control|control (ssRNA)", "RNA": "GGGAGUUCUACAGUCCGACGAUCGGUAGAGGUAGACGGGCGCUUCGUGUGGAGGGUGAACUUGGAUGCCCUGACCCAGCACCUAGACAAGAUCUUGGCUUUCCCACAGAGGCAGGAGUCCUACCUCGGGCCAACACUCUUUCUCAACAGAGGAUUGAGCAUCA"}, "B2": {"name": "chr12:39619279:39619382:-|CDS|ENSG00000173208|unk|total|mutant (ssRNA)", "RNA": "GGGAGUUCUACAGUCCGACGAUCCGAGACCAUUUGUGAAAAACCUUCGCCUGGAGUGAAUGCAGAUUUCUUCAAACAGCUACCCGAACUUCGGAAAAUUUUGUUUCCAAAACUUGUGACCACUGAAACAGGGUGGCUCUGCCUCAACAGAGGAUUGAGCAUCA"}, "B3": {"name": "chr2:206755008:206755505:-|CDS|ENSG00000138400|control|control|control (ssRNA)", "RNA": "GGGAGUUCUACAGUCCGACGAUCCACUCUGGAGGACUGCCUCCGAAGCAGGGUGCCUCUCUGCAGGCUCUAUGGGUACCUGAUAGAGAAAAAUGCUCAUGAGUCUGUCAGAGUCAUCGUGGGAGGGAGAACCUUUGUAAACCUCAACAGAGGAUUGAGCAUCA"}, "B4": {"name": "chr15:90501451:90501552:+|3pUTR|ENSG00000140575|msi1_unk|total|mutant (ssRNA)", "RNA": "GGGAGUUCUACAGUCCGACGAUCCUGAGCCUCUAUUUUCUUUCUUUGAUGUUUUGAUUCAGUAUUCUUUUAUCAUAAAUUUUCCGCAUUUAAAAAUUCACUGAUGUACAUUAAGCCAAUAAACUGCUUUAAUGAAUAACAAACCAACAGAGGAUUGAGCAUCA"}, "B5": {"name": "chr1:203741760:203741861:+|3pUTR|ENSG00000058668|msi1|FALSE|unique (ssRNA)", "RNA": "GGGAGUUCUACAGUCCGACGAUCAUUUUGGUUUUGUAAAACGUACAUGCUUCAAUAAUUCUUUUUUGUGUCUUAAAUACUCAUAGGGGAAAAAAACAGCUCACCCAAGGUGUUAGGUUUCACAUAUAUAUUCAUCAACUAUUUCAACAGAGGAUUGAGCAUCA"}, "B6": {"name": "ENSG00000152601:stop:overlap|stop_codon|ENSG00000152601|stop_codon|NA|stop_codon (ssRNA)", "RNA": "GGGAGUUCUACAGUCCGACGAUCACCAGAUACCCAUAAUAUCUGCCGAACAUCUGACUAGCCACAAGUAUGUUACCCAGAUGUAGAAUUUUCAUCACUAAACAAUCAUGCUAAAGAGGAAAGGACAGUGUGCUUGGUUAGAGUCAACAGAGGAUUGAGCAUCA"}, "B7": {"name": "chr12:123761472:123761573:+|3pUTR|ENSG00000185344|unk|FALSE|unique (ssRNA)", "RNA": "GGGAGUUCUACAGUCCGACGAUCAAUAAGGCAGUUUGAACGAACAGUCUUCCCACAGUCAGGCCAUUUUUGCUGAUUUGGUUUAGAAUUUUCAGAAAUACUUAGUACACUCCACCUGUUCUUUGAUGGGAAUAUCUAAGAAGGCAACAGAGGAUUGAGCAUCA"}, "B8": {"name": "chr3:12540195:12540433:-|CDS|ENSG00000225526|control|control|control (ssRNA)", "RNA": "GGGAGUUCUACAGUCCGACGAUCCACCAUAACUGCUACUCUUACGCACUCACGUUCAUUAACUGCGUUCUGAUGGCAGAAGGUAGACAGCAACUGGACAAGGGUGAAUUUACGGAGAAGUACGUGGUCCCGCGGACAAGGCUGCAACAGAGGAUUGAGCAUCA"}, "B9": {"name": "chr1:155134173:155134274:+|3pUTR|ENSG00000169242|msi1|FALSE|unique (ssRNA)", "RNA": "GGGAGUUCUACAGUCCGACGAUCGCCACUUUCAGAGCCCCCAGCCCUGGGAACCACUCCCACCACAGGCAUAAGCUAUCACCUAGCAGCCUCAAAACGGGUCAGUAUUAAGGUUUUCAACCGGAAGGAGGCCAACCAGCCCGACAACAGAGGAUUGAGCAUCA"}, "B10": {"name": "chr19:34469546:34469571:+|3pUTR|ENSG00000126261|msi1_unk|FALSE|overlapping (ssRNA)", "RNA": "GGGAGUUCUACAGUCCGACGAUCGUUGCCUUUUUAAUGUAAAUACCCGUAGGUAUCAUUAAUAGUUUCAAAAUAUUGUGGUUUAGUAAAGUUGAUACCUGGUUAUAAAUAUUAUGCCUUUAUUUUUGGCUAGAAGAAGAAUUACAACAGAGGAUUGAGCAUCA"}, "B11": {"name": "chr2:166409664:166409935:-|three_prime_utr|ENSG00000136546|control|control|control (ssRNA)", "RNA": "GGGAGUUCUACAGUCCGACGAUCUGUGGUAACAAGCCAAGCUUUUAAUGUCAUUGUUAUGGUUCUUAUAUGUUUCCAAGCAAUAGCCAUGAUGAUAGACACUGAUGUUCAGAGUCUACAAAUGUCCAUUGCUCUCUACUGGAUCAACAGAGGAUUGAGCAUCA"}, "B12": {"name": "chr11:63758435:63758536:+|3pUTR|ENSG00000133318|msi1|FALSE|unique (ssRNA)", "RNA": "GGGAGUUCUACAGUCCGACGAUCAGAAAGAAUCAAAUUCAUAGGAUAAGUCAAUACCUUAAUGGUGGUAGAGCCUUUACCUGUAGCUUGAAAGGGGAAAGAUUGGAGGUAAGAGAGAAAAUGAAAGAACACCUCUGGGUCCUUCAACAGAGGAUUGAGCAUCA"}, "B13": {"name": "chr10:123051058:123051159:+|CDS|ENSG00000196177|unk|total|mutant (ssRNA)", "RNA": "GGGAGUUCUACAGUCCGACGAUCCAAGUGGCUCACGUGGCCACCCAGCUGGAAGCUGCAAGAUUACUAACAUACAAUGCUGCCCGGCUUUCCGAAGCUGGAAAGCCAUUCAUAAAAGAAGCGUCAAUGGCCAAAUACUAUGCACAACAGAGGAUUGAGCAUCA"}, "B14": {"name": "chrX:119453419:119453520:+|3pUTR|ENSG00000077713|unk|FALSE|unique (ssRNA)", "RNA": "GGGAGUUCUACAGUCCGACGAUCCAGGUAAUUGAAGUGGCUGAGUGGAUACCACGUUGUGAGGUCAGCCACUGGGUCACUUGUAGUCAAUGCAAAGCUUGCACAAACCAACGUCAGCCUAGUUUCACUCAGUUUGACCUGAGACAACAGAGGAUUGAGCAUCA"}}, "note": "Some of the results follow."}
{"target": "MSI1 full-length (mouse, UniProt Q61474 1-362)", "sequence (Q61474 whole entry)": "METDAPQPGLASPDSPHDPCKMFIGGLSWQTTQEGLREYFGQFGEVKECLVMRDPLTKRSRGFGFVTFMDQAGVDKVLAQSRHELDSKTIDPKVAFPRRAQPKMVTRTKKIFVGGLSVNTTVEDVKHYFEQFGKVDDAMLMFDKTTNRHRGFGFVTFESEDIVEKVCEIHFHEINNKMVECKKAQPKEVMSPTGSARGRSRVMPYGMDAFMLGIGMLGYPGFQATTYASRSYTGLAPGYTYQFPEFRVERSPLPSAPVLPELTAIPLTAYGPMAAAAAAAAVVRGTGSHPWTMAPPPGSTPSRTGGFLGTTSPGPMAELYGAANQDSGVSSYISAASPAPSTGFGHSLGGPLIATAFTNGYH", "assay": "nsRBNS (natural sequence RNA bind-n-seq); RBNS binding buffer (assumed for nsRBNS): 25 mM Tris pH 7.5, 150 mM KCl, 3 mM MgCl2, 0.01% Triton X-100, 500 ug/ml BSA, 20 U/ml SUPERase-In, 4 C; UNK is unkempt and MSI1 is Musashi-1; names of the RNAs are library labels; protein concentration not given here; high values mean tight binding", "units": {"binding signal": "enrichment R"}}
{"binder": "B1", "binding signal": 0.528}
{"binder": "B2", "binding signal": 0.252}
{"binder": "B3", "binding signal": 0.692}
{"binder": "B4", "binding signal": 0.698}
{"binder": "B5", "binding signal": 2.11}
{"binder": "B6", "binding signal": 0.651}
{"binder": "B7", "binding signal": 0.821}
{"binder": "B8", "binding signal": 0.389}
{"binder": "B9", "binding signal": 0.655}
{"binder": "B10", "binding signal": 35.8}
{"binder": "B11", "binding signal": 0.263}
{"binder": "B12", "binding signal": 0.702}
{"binder": "B13", "binding signal": 0.283}
{"binder": "B14", "binding signal": 0.46}
